Experimental data published in the supplement of paper PMC3334620.
In all, about 33,000 sequences were measured (“E-score (-0.5 to 0.5)”: median about -0.016, highest 2% from about 0.32 on). The list shows a part of the results.

These sequences were tested against T1, Stp1 (UniProt B3LFK1) (assay: PBM E-score (8-mer binding enrichment) (E-score (-0.5 to 0.5)); higher = stronger / more preferred TF binding; most listed sequences are background and not binding sites). Settings: protein concentration: 200 nM; construct: GST-full length.
T1 sequence: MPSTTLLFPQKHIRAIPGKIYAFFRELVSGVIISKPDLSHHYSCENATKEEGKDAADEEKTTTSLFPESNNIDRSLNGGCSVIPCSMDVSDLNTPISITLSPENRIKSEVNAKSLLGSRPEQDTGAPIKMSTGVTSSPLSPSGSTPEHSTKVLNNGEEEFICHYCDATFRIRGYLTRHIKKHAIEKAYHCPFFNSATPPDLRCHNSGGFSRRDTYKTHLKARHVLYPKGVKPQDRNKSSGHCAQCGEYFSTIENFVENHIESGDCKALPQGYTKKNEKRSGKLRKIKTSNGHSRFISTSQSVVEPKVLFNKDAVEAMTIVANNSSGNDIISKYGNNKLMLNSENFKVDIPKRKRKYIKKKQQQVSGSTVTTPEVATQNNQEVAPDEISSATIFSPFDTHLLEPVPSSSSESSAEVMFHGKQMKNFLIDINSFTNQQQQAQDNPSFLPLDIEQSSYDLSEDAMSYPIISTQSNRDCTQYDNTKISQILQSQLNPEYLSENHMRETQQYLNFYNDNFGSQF
Outline: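 E-scores (a modified Wilcoxon-Mann-Whitney statistic) were assigned by the Universal PBM Analysis Suite to every ungapped eight-base word pooled with its reverse complement. The input came from universal all-10-mer Agilent arrays made double-stranded by primer extension and probed with GST-tagged yeast transcription factors at about 100-200 nM. Fluorescent anti-GST detected bound protein, and masliner normalised the scans.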

Sequence | PBM E-score
TACGGTCA | -0.00514
AGGTTGCG | -0.138
CGAGCTAC | -0.21
CATAAGAA | 0.144
GGAGCCTA | 0.0295
GAGGCGCA | 0.338
GTATAAAC | 0.203
AAGTGCGC | 0.0718
TAAATGGA | -0.0135
GAAGACCC | -0.326
CCCAAATA | -0.153
CTAATAGC | 0.00844
AAATAGGC | 0.129
ATGTCAAG | -0.095
AGTATGGG | -0.147
ACCATACT | -0.121
CGACTCCC | -0.209
TACCTTGA | -0.0177
AATTATAA | 0.118
ATACCGAT | -0.0441
TAAGAAGA | 0.149
AAAGATGC | 0.164
ATGAAAGG | 0.033
CCACGCAG | -0.0441
GCGAACCA | -0.0941

Sequence | PBM E-score
TCTACACA | -0.00471
AAAACCCC | -0.139
GCGGTTTA | 0.156
ATGCGATA | 0.105
ATGCGAGG | 0.144
AATCCTAG | -0.0474
GCCTTGAA | -0.111
CCCGCAGA | 0.06
TCCCCCCA | -0.372
CAAATGAA | 0.17
AGCCACGC | -0.00665
CAAGGGCC | -0.169
AAGTTCCA | -0.0474
ATAGTTTG | 0.121
CCGCGACC | -0.0636
GAGGCTCC | 0.149
TAAAGTTA | 0.0724
AAATTGCC | 0.245
CAGCAACG | 0.247
GGACGACC | -0.256
AGCTAGAA | -0.0847
AGCTGAGA | -0.0837
AAACGTTC | 0.0506
ATGGCTCC | 0.0184
CCCGGTCG | -0.278

Sequence | PBM E-score
CTGATCTA | -0.123
ACCGCTCT | -0.184
AGCAGCGG | 0.0735
CTACCCCA | -0.114
AATCGTAA | 0.0424
CCAGCATC | -0.178
CATGAATC | -0.022
CGCTTGTC | -0.238
GAGACCGC | -0.138
GTGCTGTA | -0.00597
TCTGGTCA | -0.0173
AACACTGC | -0.00296
ACTACGGA | -0.0355
ATTCAAGC | 0.0278
ATCGGTAG | -0.0353
ACCAGGGC | -0.19
CAATCATA | 0.0533
TAAGGGCA | 0.105
CACCAAAA | 0.25
AGGAGTGG | -0.216
CACTAGGC | 0.003
AGTCAGCC | -0.144
CCAATGGC | -0.0859
GATAAAAC | 0.192
TACCCGGA | 0.113

Sequence | PBM E-score
CCGAGTCA | -0.0324
AATACCAT | 0.0597
GGAAGACA | 0.00926
TAGTCATA | -0.222
CATGTAAA | 0.179
ACTATTAG | 0.0245
AAAAGGTA | -0.0198
ACTCCGAA | -0.104
ATAAAGAA | 0.0754
AATAACAA | 0.0296
GAAGGCCA | -0.238
CACTACTG | -0.0901
TCGTACAA | 0.157
AAGAAAAG | 0.0347
CCAAGCCA | -0.0891
CCAGCTCA | -0.18
ACTTTGTC | 0.0794
CACTACCG | -0.0825
CCGGCTGA | 0.0569
GGGGCGTA | -0.174
ACAAGCCG | 0.183
GAACACGA | -0.115
AAGATAGT | 0.00721
GGTTCAAC | -0.0646
GGTGCGAA | -0.129

Sequence | PBM E-score
TCGACACA | 0.128
ATAGAGTA | 0.177
CAACGCGG | 0.157
ACAGCCGC | 0.25
ACCATTCA | -0.00954
ATCTTATA | 0.168
CCCAGATA | -0.174
ATTGACCG | 0.147
ACTCCTAA | -0.0987
CTGGGTAA | -0.138
ATAACATA | 0.153
ACTGCGTA | -0.108
CGCCCGAG | 0.0304
TCCACTAA | 0.0237
AAGGGCCA | -0.068
CGCGCAAA | 0.198
GCTGCATA | 0.155
CTCATCAC | -0.0536
GATCATGA | 0.0743
CAAACAAA | 0.0264
AAGGGAGA | -0.253
TGGCTACA | -0.0168
CACCTTGC | -0.0534
AGCGTCGA | -0.0232
CAAACAGC | 0.0389

Sequence | PBM E-score
GGTTGGAC | -0.209
CGACGGTC | -0.258
AAGTGCTA | -0.237
ACCCCGAT | -0.189
AGCTTTCA | -0.104
AATGGCCA | -0.213
AAGGTATC | 0.00886
CTATGGTC | -0.0791
CTGGCGTA | -0.266
AATCCGCA | 0.135
ACGCTTTC | -0.0887
CTGGCATC | -0.164
AGGGCCTA | -0.25
AATGTGCT | 0.0814
TCCGGTCA | -0.114
AACACAAT | 0.0477
GTCCAGTA | -0.174
ATTGTACG | 0.152
GAAACTAA | 0.0104
GCTATGAA | 0.00421
CTGCCCCA | -0.0878
ATCGGGTG | -0.0912
ATACACGC | 0.136
ACTATAGG | -0.135
CGGGGGAC | -0.29

Sequence | PBM E-score
AATCTCCA | -0.131
CAAAGTAG | -0.0838
ACCATCAG | -0.216
CATTGGAA | 0.102
AGCTTATA | -0.0428
ACTTCACC | 0.174
CCCTGAGC | -0.0609
GGGCGTAA | -0.0217
CCTCTAAG | -0.178
CTGGCCTC | -0.197
GAGCCCAC | -0.264
CCTGAACA | -0.103
ACGGTGGA | -0.202
AGTGAAAT | 0.108
CCTAAGTC | -0.287
ACTCGACT | -0.136
GACTTCTA | -0.11
AGGCAGAC | -0.147
AGGCATGC | 0.144
CCCATGTA | -0.0406
CGCGAGAC | -0.0726
AAGGAAGA | -0.149
